Data as given in patent publication US20120180150A1 (published 2012).

Target: T1, mouse IP3R1 full length with C-terminal GFP (mouse, UniProt P11881 1-2749)
T1 construct: also called IP3R1-GFP; IP3R-GFP protein; not shown: C-terminal GFP of the pEGFP-N1 vector, with any linker from the cloning site
Assay: HA-matrix co-immunoprecipitation from HEK 293 cells, anti-GFP Western blot
Procedure: Into HEK 293 cells, a full length IP3R1-GFP expression plasmid and each of the KRAP full length, the deletion mutants, or the point-mutant expression plasmids were introduced together with lipofectamine LTX (Invitrogen), respectively, and the resulting cells were incubated for 24 hours. They were then homogenized in an extracting buffer (50 mM Tris-HCl, pH7.5, 140 mM NaCl, 0.5% NP40, 0.25M NDSB-201 (Calbiochem), and protease inhibitors (Complete EDTA-free, Roche)), and the homogenized mixture was centrifuged at 15,000 rpm for 30 minutes. The resulting supernatant was then subjected to immunoprecipitation with HA matrix (Roche) to precipitate the IP3R-GFP protein binding to the KRAP protein, and the precipitated IP3R-GFP protein was detected by Western blots using a rabbit polyclonal antibody (Clonetech) as an anti-GFP antibody. In the experiment using HCT 116 cells, the presence or absence of co-precipitation of the endogenous IP3R protein was investigated without transfection of the IP3R-GFP protein using a mouse monoclonal antibody (BD Transduction Laboratory) as an anti-IP3R3 antibody.

T1 sequence (P11881 whole entry S1044R/E1045K): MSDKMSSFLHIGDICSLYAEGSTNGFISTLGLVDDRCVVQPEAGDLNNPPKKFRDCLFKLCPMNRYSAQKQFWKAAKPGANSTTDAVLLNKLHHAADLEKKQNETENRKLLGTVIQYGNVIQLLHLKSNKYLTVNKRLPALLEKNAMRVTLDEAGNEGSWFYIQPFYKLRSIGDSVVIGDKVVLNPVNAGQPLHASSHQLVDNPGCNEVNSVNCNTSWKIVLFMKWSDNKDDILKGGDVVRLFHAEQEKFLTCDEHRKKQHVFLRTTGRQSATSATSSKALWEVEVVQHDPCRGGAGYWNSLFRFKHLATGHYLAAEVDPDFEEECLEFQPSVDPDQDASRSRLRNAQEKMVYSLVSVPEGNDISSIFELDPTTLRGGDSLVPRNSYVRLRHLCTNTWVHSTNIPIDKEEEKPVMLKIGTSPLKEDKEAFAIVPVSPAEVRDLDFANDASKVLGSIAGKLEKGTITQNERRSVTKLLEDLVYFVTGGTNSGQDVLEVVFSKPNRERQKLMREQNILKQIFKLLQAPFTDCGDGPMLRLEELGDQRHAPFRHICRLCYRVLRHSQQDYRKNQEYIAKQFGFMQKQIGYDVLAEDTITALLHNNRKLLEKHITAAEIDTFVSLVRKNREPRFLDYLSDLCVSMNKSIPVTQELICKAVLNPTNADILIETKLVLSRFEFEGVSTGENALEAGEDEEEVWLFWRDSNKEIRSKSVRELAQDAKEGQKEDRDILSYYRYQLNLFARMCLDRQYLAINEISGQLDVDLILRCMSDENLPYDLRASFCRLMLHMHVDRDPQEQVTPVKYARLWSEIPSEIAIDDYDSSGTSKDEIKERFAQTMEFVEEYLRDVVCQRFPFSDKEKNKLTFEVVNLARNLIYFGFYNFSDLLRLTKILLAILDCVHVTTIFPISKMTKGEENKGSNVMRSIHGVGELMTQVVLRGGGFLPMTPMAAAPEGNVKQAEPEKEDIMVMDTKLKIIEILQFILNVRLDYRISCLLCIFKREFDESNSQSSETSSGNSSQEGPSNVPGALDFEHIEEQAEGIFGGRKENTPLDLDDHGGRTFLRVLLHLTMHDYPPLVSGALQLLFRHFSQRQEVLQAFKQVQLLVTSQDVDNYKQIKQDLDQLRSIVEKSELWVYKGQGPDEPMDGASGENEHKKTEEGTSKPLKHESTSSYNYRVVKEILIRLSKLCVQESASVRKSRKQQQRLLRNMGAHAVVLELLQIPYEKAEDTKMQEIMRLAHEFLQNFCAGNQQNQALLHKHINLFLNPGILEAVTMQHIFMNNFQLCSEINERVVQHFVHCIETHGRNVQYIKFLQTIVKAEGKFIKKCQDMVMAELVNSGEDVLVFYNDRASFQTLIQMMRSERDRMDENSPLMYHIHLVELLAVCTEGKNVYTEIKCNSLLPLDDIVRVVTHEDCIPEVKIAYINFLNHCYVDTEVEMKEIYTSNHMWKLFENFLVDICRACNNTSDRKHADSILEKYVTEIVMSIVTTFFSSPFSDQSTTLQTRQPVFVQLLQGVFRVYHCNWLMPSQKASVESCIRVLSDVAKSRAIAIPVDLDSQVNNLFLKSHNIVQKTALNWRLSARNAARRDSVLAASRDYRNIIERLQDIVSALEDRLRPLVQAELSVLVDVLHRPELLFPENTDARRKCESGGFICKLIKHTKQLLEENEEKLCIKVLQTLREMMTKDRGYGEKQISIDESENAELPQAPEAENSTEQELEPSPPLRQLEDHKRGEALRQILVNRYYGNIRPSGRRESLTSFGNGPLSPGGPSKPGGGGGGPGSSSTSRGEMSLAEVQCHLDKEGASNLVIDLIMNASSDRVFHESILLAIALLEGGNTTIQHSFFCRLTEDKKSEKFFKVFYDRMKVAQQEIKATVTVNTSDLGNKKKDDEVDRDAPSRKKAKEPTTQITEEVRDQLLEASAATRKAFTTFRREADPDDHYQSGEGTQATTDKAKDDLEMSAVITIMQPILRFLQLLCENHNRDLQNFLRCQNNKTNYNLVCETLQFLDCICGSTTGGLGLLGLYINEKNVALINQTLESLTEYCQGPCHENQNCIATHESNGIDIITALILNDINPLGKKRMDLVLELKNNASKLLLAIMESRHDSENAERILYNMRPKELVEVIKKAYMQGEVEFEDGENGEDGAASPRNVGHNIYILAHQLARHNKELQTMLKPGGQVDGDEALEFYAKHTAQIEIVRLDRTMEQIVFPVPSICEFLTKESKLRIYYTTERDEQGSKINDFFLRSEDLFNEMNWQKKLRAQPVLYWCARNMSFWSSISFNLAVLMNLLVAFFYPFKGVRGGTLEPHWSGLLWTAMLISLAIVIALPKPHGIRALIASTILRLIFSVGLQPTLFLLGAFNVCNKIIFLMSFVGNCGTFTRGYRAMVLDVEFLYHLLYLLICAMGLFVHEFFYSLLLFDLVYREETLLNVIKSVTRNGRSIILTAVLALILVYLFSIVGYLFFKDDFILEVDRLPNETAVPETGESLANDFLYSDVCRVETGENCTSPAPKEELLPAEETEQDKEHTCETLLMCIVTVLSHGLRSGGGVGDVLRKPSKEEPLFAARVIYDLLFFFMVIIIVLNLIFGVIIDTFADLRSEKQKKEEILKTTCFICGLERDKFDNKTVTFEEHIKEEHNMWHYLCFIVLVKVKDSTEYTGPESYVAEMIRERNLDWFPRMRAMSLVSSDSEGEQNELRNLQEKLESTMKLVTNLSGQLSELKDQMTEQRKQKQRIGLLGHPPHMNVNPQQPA

binding result: no binding
B1: mouse KRAP deletion mutant, amino acid residues 1-199, N-terminal HA tag (other)
chain: MNRPLSAEAEEELEWQVASRRRKAWAKCRSSWQASETEDLSTETTTQDEDEDDEEDLPGTKLPAPAGRGNVPNEKIAIWLKDCRTPLGASLDEQSSGTPKGVLVRNGGSFEDDLSLGAEANHLHEPDAQVENCNNILAKERRLQFHQKGRSMNSTGSGKSSGTVSSVSELLELYEEDPEEILYNLGFGRDEPDIASKIP
notes: not shown: N-terminal HA tag of the pCMV-HA vector
